Data from the supplement of paper PMC12217912.
This is one part of the list. The full chains were built here from the parent and the listed change. Inactive controls read about 0.05.

B1: TEV protease; numbered along this chain (parent)
chain: MGESLFKGPRDYNPISSSICHLTNESDGHTTSLYGIGFGPFIITNKHLFRRNNGTLVVQSLHGVFKVKDTTTLQQHLVDGRDMIIIRMPKDFPPFPQKLKFREPQREERICLVTTNFQTKSMSSMVSDTSCTFPSGDGIFWKHWIQTKDGQCGSPLVSTRDGFIVGIHSASNFTNTNNYFTSVPKNFMELLTNQEAQQWVSGWRLNADSVLWGGHKVFMVKPEEPFQPVKEATQL

Variants of: B1
Test: raw area under fraction-flipped curve 0-4 h after induction (AUC4h, not background-subtracted), DNA-recorder readout of cleavage of the substrate (dimensionless); higher = more cleavage of the substrate by the protease variant
Conditions: temperature: 34 °C; time window: 0-4 h after rhamnose induction
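Also: Bxb1 expression induced with 0.2% (w/v) L-rhamnose at OD600 near 0.5, cultures sampled hourly, flipped fraction per protease–substrate barcode pair counted by paired-end Illumina sequencing.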

Variant | area with substrate ENDYFQS | area with substrate ENFYFQS | area with substrate ENHYFQS | area with substrate ENIYFQS | area with substrate ENQYFQS | area with substrate ENSYFQS | area with substrate ENCYFQS | area with substrate ENEYFQS | area with substrate ENGYFQS | area with substrate ENKYFQS | area with substrate ENNYFQS | area with substrate ENPYFQS | area with substrate ENVYFQS | area with substrate ENYYFQS | area with substrate ENMYFQS | area with substrate ENRYFQS | area with substrate ENWYFQS | area with substrate ENTYFQS
MGESLFKGPRDYNPISSSICHLTNESDGHTTSLYEIGFGPFIITNKHLFRRNNGTLVVQSLHGVFKVKDTTTLQQHLVDGRDMIIIRMPKDFPPFPQKLKFREPQREERICLVTTNFQTKSMSSMVSDTSCTFPSGDGIFWKHWIQTKDGQCGSPLVSTRDGFIVGIHSASNFTNTNNYFTSVPKNFMELLTNQEAQQWVSGWRLNADSVLWGGHKVFMVKPEEPFQPVKEATQL [G35E] | 0.0321 | 0.0396 | 0.0361 | 0.0416 | 0.0331 | 0.0446 | – | – | – | – | – | – | – | – | – | – | – | –
MGESLFKGPRDYNPISSSICHLTNESDGHTTSLYGIGFGPFIITNKHLFRRNNGTLVVQSLHGVFKVKDTTTLQQHLVDGRDMIIIRMPKDFPPFPQKLKFREPQREERICLVTTNFQTKSMSSMVSDTSCTFPSGDGIFWKHWIQTKDGQCGSPLVSTRDGFIVGIHSASNFTNTNNYFTSVPKNFMELLTNQEAQQWVSGWRLFADSVLWGGHKVFMVKPEEPFQPVKEATQL [N206F] | 0.0524 | 0.0531 | 0.0444 | – | 0.0571 | 0.0696 | 0.0683 | 0.0532 | 0.0537 | 0.0396 | 0.0281 | 0.0603 | 0.068 | 0.0726 | – | – | – | –
MGESLFKGPRDYNPISSSICHLTNESDGHTTSLYGIGFGPFIITNKHLFRRNNGTLVVQSLHGVFKVKDTTTLQQHLVDGRDMIIIRMPKDFPPFPQKLKFREPQREERICLVTTNFQTKSMSSMVSDTSCTFPSGDGIFWKHWIQTKDGQCGSPLVSTRDGFIVGIHSASNFTNTNNYFTSVPKNFMELLTNQEAQQWVSGWRLNADSVLWGGHKVFAVKPEEPFQPVKEATQL [M219A] | 0.0717 | 0.0638 | 0.06 | – | 0.0596 | 0.104 | 0.0665 | 0.0651 | – | 0.0526 | – | – | 0.0494 | 0.0437 | 0.0631 | 0.0601 | 0.0677 | –
MGESLFKGPRDYNPISSSICHLTNESDGHTTSLYGIGFGPFIITNKHLFRRNNGTLVVQSLHGVFKVKDTTTLQQHLVDGRDMIIIRMPKDFPPFPQKLKFREPQREERICLVTTNFQTKSMSSMVSDTSCTFPSGDGIFWKHWIQTKDGQCGSPLVSTRDGFIVGIHSASNFTNTYNYFTSVPKNFMELLTNQEAQQWVSGWRLNADSVLWGGHKVFMVKPEEPFQPVKEATQL [N177Y] | 0.0645 | – | – | – | 0.0681 | 0.0785 | 0.0581 | – | – | – | 0.0665 | 0.0543 | 0.064 | – | – | – | – | –
MGESLFKGQRDYNPISSSICHLTNESDGHTTSLYGIGFGPFIITNKHLFRRNNGTLVVQSLHGVFKVKDTTTLQQHLVDGRDMIIIRMPKDFPPFPQKLKFREPQREERICLVTTNFQTKSMSSMVSDTSCTFPSGDGIFWKHWIQTKDGQCGSPLVSTRDGFIVGIHSASNFTNTNNYFTSVPKNFMELLTNQEAQQWVSGWRLNADSVLWGGHKVFMVKPEEPFQPVKEATQL [P9Q] | 0.0552 | 0.0555 | 0.0653 | – | 0.0596 | 0.0545 | – | 0.0585 | 0.0501 | – | 0.0631 | – | – | – | – | – | 0.0489 | –
MGESLFKGPRDYNPISSSICHLTNESDGHTTSLYGIGFGPFIITNKHLFRRNNGTLVVQSLHGVFKVKDTTTLQQHLVDGRDMIIIRMPKDFPPFPQKLKFREPQREERICLVTTNFQTKSMSSMVSDTSCTFPSGDGIFWKHWIQTKDGQCGSPLVSTRDGFIVGIHSASNFTNTNNYFTSVPKNFMELLTNQEAQQWVSGWRLNADSVLWGGHKVFMVKPEEPFQPVKEETQL [A232E] | 0.0614 | 0.0639 | 0.0688 | 0.0872 | 0.0671 | – | 0.0655 | 0.0534 | – | – | 0.059 | 0.0521 | 0.107 | 0.0709 | – | 0.0373 | – | 0.0628
MGESLFKGPRDYNPISSSICHLTNESDGHTTSLYGIGFGPFIITNKHLFRRNNGTLVVQSLHGVFKVKDTTTLQQHLVDGRDMIIIRMPKDFPPFPQKLKFREPQREERICLVTTNFQTKSMSSMVSDTSCTFPSGDGIFWKHWIQTKDGQCGSPLVSTRDGFIVGIHSASNFTNTNNYFTSVPKNFMELLTNQEAQQWVSGWRLNADSVLWGGHKVFMVKPEEPFQPVKELTQL [A232L] | 0.0635 | 0.0558 | 0.0574 | – | 0.0652 | 0.0829 | 0.0576 | 0.0608 | – | 0.0534 | 0.0447 | 0.0624 | 0.0626 | 0.0453 | – | 0.0465 | 0.0037 | 0.0638
MGESLFKGPRDYNPISSSICHLTNESDGHTTSLYGIGFGPFIITNKHLFRRNNGTLVVQSLHGVFKVKDTTTLQQHLVDGRDMIIIRMPKDFPPFPQKLKFREPQREERICLVTTNFQTKSMSSMVSDTSCTFPSGDGIFWKHWIQTKDGQCGSPLVSTRDGFIVGIHSASNFTNENNYFTSVPKNFMELLTNQEAQQWVSGWRLNADSVLWGGHKVFMVKPEEPFQPVKEATQL [T176E] | 0.0364 | 0.0657 | 0.0648 | 0.0715 | 0.0753 | 0.0636 | 0.0733 | 0.0689 | – | – | 0.0663 | 0.0557 | 0.0907 | – | 0.068 | – | – | –
MGESLFKGPRDYNPISSSICHLTNESDGHTTSLYGIGFGPFIITNKHLFRRNNGTLVVQSLHGVFKVKDTTTLQQHLVDGRDMIIIRMPKDFPPFPQKLKFREPQREERICLVTTNFQTKSMSSMVSDTSCTFPSGDGIFWKHWIQTKDGQCGSPLVSTRDGFIVGIHSASNFTNTNNYFTSVEKNFMELLTNQEAQQWVSGWRLNADSVLWGGHKVFMVKPEEPFQPVKEATQL [P184E] | – | – | – | – | 0.0488 | 0.0777 | 0.0612 | 0.0588 | – | – | 0.0664 | – | – | 0.0616 | – | 0.0492 | – | 0.0586
